The text below walks through data of ChEMBL document CHEMBL1201862, “PubChem BioAssay data set” (2004).

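1) Cells in 96-well plates. 2) Compound, 48 h, 5 concentrations. 3) Linear interpolation between surrounding doses. 4) Unreached endpoint = highest concentration. At the GI50, growth is halved.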 The source made the active and inactive calls. No stated cut-off is given here; in the data, active = GI50 up to about 1.1 µM and inactive = higher.

This assay relates to NCI-H322M. Briefly: DTP human tumour cell line panel, 48 h.
As a reminder, the GI50 is the concentration at which growth is held to half of that of the control. For the molecule `O=C(O)c1ccc(SSc2ccc(C(=O)O)cn2)nc1`, the GI50 is inactive: > 100 µM. Regarding `Cn1cnc([N+](=O)[O-])c1Sc1nnc(-c2cccnc2)n1C`, the GI50 is inactive: > 100 µM. As to `COc1cccc2c1C(CO)N1C(C#N)C3CC(C(=O)O)C(C1C2)N3C` (stereo unspecified), the GI50 was inactive: 4.46 µM. Regarding `CC1OC(Oc2c(-c3cc(O)c(O)c(O)c3)oc3cc(O)cc(O)c3c2=O)C(O)C(O)C1O` (stereo unspecified), the GI50 was inactive: > 100 µM.

For the molecule `CN(C)CCCNc1ncnc2[nH]cnc12`, the GI50 is inactive: > 100 µM.

For the molecule `O=C(NC(=O)c1c(F)cccc1F)Nc1cccc(Oc2ncc(Cl)cn2)c1`, the GI50 was inactive: > 66.5 µM. With `Cc1cc(C)n(CN(CCCCO)Cn2nc(C)cc2C)n1`, the GI50 was inactive: > 100 µM.

Take `CCOC(=O)[C@H](CCCNC(=O)OC(C)(C)C)NCc1ccc(OC)c(OC)c1`: the GI50 was inactive: > 100 µM. For `Cc1ccc2c3c1[C@@H]1O[C@@H]1c1cccc(c1-3)[C@@H]1O[C@H]21` the value was inactive: 15.4 µM; for `C[C@]12O[C@@]3(C)O[C@@]3(C)[C@]3(C)O[C@]3(C)[C@@]1(C)O2`, inactive: > 100 µM. To `c1csc(C[N+]23CN4CN(CN(C4)C2)C3)c1` belongs inactive: > 100 µM; to `CC1=CC(=O)C(C)(C2=NC(C)(C)CO2)c2ccccc21` (stereo unspecified), inactive: > 100 µM.

With `O=C(O)C1CC(C2CCCCN2)CN2CCCCC12` (stereo unspecified), the GI50 was inactive: > 100 µM.

As to `C/C=C\C(CC(=O)NCCc1cn(C(=O)OCc2ccccc2)c2ccccc12)CC(=O)OC` (stereo unspecified), the GI50 was inactive: > 100 µM. `c1ccc(-c2[nH]c(-c3ccccc3)c(-c3cnccn3)c2-c2cnccn2)cc1`: the GI50 is inactive: > 100 µM. For `COc1nc2c(c(=O)n1C)NC(C(O)C(O)CO)C=N2` (stereo unspecified), the GI50 is inactive: > 10 µM. On to `CN(/N=C/c1cccc2cccnc12)c1ccc([N+](=O)[O-])cc1`, for which the GI50 was inactive: > 100 µM. Regarding `COc1ccc(C2SC(=N)Nc3c2c(C)nn3C(=O)Cc2ccccc2)cc1` (stereo unspecified), the GI50 was inactive: > 100 µM. Take `CCN(CC)Cc1nc(C2CCC([N+](=O)[O-])O2)no1` (stereo unspecified): the GI50 is inactive: 23.6 µM. On to `CN(C)N1C(=O)CC2(CCN(CCCC(=O)c3ccc(F)cc3)CC2)C1=O`, for which the GI50 was inactive: > 100 µM.

As to `CC(=O)O[C@H]1C[C@@H](OC(C)=O)[C@@](C)(O)[C@@H]2[C@@H](OC(C)=O)[C@@]3(O)[C@H](/C=C(/CO)[C@H]4O[C@H]4[C@@H](OC(C)=O)[C@@]12C)OC(=O)[C@@H]3C`, the GI50 is inactive: > 25 µM. On to `COc1ccc(COCCOCc2nc(C#N)c(N)o2)cc1`, for which the GI50 is inactive: > 100 µM. Turning to `N#CC1C(=O)NC2=C(CCOc3c2ccc2ccccc32)C1c1ccc(F)cc1` (stereo unspecified), the GI50 is inactive: 59.2 µM. Turning to `Cc1nc(N)c(N2CCN([N+](=O)[O-])CC2)c(O)n1`, the GI50 is inactive: > 100 µM. As to `N#Cc1ccc(-c2ccc(Cl)cc2)n(C2OC(CO)C(O)C(O)C2O)c1=S` (stereo unspecified), the GI50 was inactive: > 100 µM. For the molecule `COP(=O)(OC)C1=c2c(C)noc2=C2C=COC2C1=O` (stereo unspecified), the GI50 is inactive: > 100 µM. Take `O=C1NC(=N/c2ccccc2)/C(=N\c2ccccc2)N1c1ccccc1`: the GI50 is inactive: 18.3 µM. For `Cc1ccc(C)c(NC(=O)C(=O)C(C(=O)c2ccc3ccccc3c2)C2OC(=O)c3ccccc32)c1` (stereo unspecified) the value was inactive: 10 µM; for `O=C(/C=C\c1ccccc1-c1ccccc1)c1ccccc1`, inactive: > 100 µM. For `C/C(=N/NC(=S)N1CC2CCC(CC2)C1)c1cnccn1`, the 50% growth inhibitory concentration (GI50) is active: < 0.01 µM.

Take `COC(=O)C12C3C4C1C1C2C3C41C(=O)NC(C)(C)CC(=O)O` (stereo unspecified): the GI50 is inactive: > 100 µM. For the molecule `C[Si](C)(C)/C=C/CN1C(=O)CCC1=O`, the GI50 is inactive: > 100 µM.

In the case of `CCCCCCCCCCCCCCCC(=O)OCC1OC(n2cc(F)c(=O)[nH]c2=O)C(NC(=O)OCc2ccccc2)C(O)C1O` (stereo unspecified), the GI50 was inactive: 20.5 µM. In the case of `CCOP(=O)(OCC)/C(C#N)=C/c1coc2cc(C)cc(C)c2c1=O`, the GI50 is inactive: > 100 µM. With `CCOP(=O)(OCC)c1cc2cc(O)ccc2oc1=O`, the GI50 is inactive: > 100 µM. `CCN(CC)c1ccc(/C=C/C(=O)c2cc(C(C)(C)C)c(O)c(C(C)(C)C)c2)cc1`: the GI50 was inactive: 23.9 µM. Regarding `N#CC(C(=O)CCCC(=O)Nc1ccc(Cl)cc1Cl)c1ccccc1` (stereo unspecified), the GI50 is inactive: > 100 µM. On to `CC(C)C1=C(O)C(=O)C2=C(C1=O)C(O)CC1C(C)(C)CCCC21C` (stereo unspecified), for which the GI50 is inactive: 5.37 µM. Consider `Cc1ccc(NC(=O)c2cc3cc(/N=N/c4ccc(Br)cc4)ccc3oc2=O)cc1`, for which the GI50 was inactive: 71.3 µM. As for `COC1OC(CO)C(O)C(NC(=O)N(C)N=O)C1O` (stereo unspecified), the GI50 was inactive: > 100 µM. Turning to `O=C(c1nc2ccccc2nc1O)C(O)c1ccco1` (stereo unspecified), the GI50 is inactive: > 100 µM. For `CCOC(=O)c1sc2nc(SC)nc3c2c1NCN3c1ccc2c(c1)OCCCO2` the value was inactive: 7.52 µM; for `Clc1ccc(OCCSCCCCCCCCCCSCCOc2ccc(Cl)cc2)cc1`, inactive: > 100 µM; for `CN(C)CCCNC(=O)c1cc(NC(=O)c2cc(NC(=O)CCCn3c4ccccc4c4ccccc43)cn2C)cn1C`, inactive: 8.47 µM.

For `CC1=NC(=Cc2ccc(O)cc2)C(=O)N1n1c(-c2ccccc2)nc2ccccc2c1=O`, the GI50 was inactive: > 100 µM.

Regarding `CCSC1=N/C(=C\c2ccco2)C(Cl)=N1`, the GI50 was inactive: > 100 µM. In the case of `CC(C)=CCCC(C)C1=C(O)C(=O)C(C)=CC1=O` (stereo unspecified), the GI50 was inactive: 31.1 µM. In the case of `COCOc1cc(OCOC)cc(C(=O)Oc2ccccc2)c1`, the GI50 was inactive: > 100 µM. In the case of `O=S1OC2(c3ccccc3-c3ccccc32)c2ccccc21` (stereo unspecified), the GI50 was inactive: > 100 µM. On to `COc1ccc(CCCCl)c(C2=NCCc3ccccc32)c1`, for which the GI50 is inactive: > 100 µM. Take `N#Cc1[nH]c(=O)n(-c2ccc(Cl)cc2)c1N`: the GI50 is inactive: > 10 µM. As for `O=C(C=P(c1ccccc1)(c1ccccc1)c1ccccc1)C12CC3CC(CC(C3)C1)C2`, the GI50 is inactive: 15.5 µM. Turning to `CC1(C)C2C=C(CCN3CCOCC3)CC1C2` (stereo unspecified), the GI50 was inactive: > 100 µM. `COc1cc2c(cc1OC)C1C(O)C(OC)C=C3CC[N+](C)(C2)C31` (stereo unspecified): the GI50 was inactive: > 100 µM.

For the molecule `O=C(CC1(O)C(=O)Nc2ccccc21)c1cccc(O)c1` (stereo unspecified), the GI50 was inactive: > 100 µM.

Regarding `O=C1C(=O)N(c2ccc(Cl)cc2)C(=O)/C(=N/c2cccc3c(=O)[nH][nH]c(=O)c23)C1c1nc2ccccc2o1` (stereo unspecified), the GI50 is inactive: > 100 µM. Regarding `CC(=O)Nc1cc2nc3n(c2cc1C)CCC3OC(C)=O` (stereo unspecified), the GI50 was inactive: > 100 µM.

`O=C(/C=C/c1ccccc1)C[C@@H](O)C[C@@H]1CC=CC(=O)O1`: the GI50 was inactive: 13.6 µM. To `COc1ccc2c(c1)C(=O)[C@@](Nc1ccc(C=O)cc1)(OC)[C@@](OC)(c1ccc([N+](=O)[O-])cc1)O2` belongs inactive: > 10 µM. `COC(=O)c1nc(C(=O)OC)c2c([nH]c3ccccc32)c1C(=O)OC`: the GI50 is inactive: > 100 µM.

Take `CCOC(=O)/C=C/[C@@H](CC)O[Si](C(C)C)(C(C)C)C(C)C`: the GI50 is inactive: > 100 µM. As to `CCCCCC1CC=CC(=O)O1` (stereo unspecified), the GI50 was inactive: 2.42 µM. Take `CC(=O)OC(CCC1(C)OC1COc1ccc(CCNC(=O)c2ccccc2)cc1)C(C)(C)OC(C)=O` (stereo unspecified): the GI50 is inactive: 99.5 µM.

`O=[N+]([O-])c1cc(Cl)ccc1S(=O)(=O)c1ccc(Cl)cc1[N+](=O)[O-]`: the GI50 was inactive: 16.3 µM. Consider `C[Si](C)(C)CN1C(=O)c2ccccc2C1(O)c1ccccc1` (stereo unspecified), for which the GI50 is inactive: > 100 µM.

As to `O=[N+]([O-])c1ccc(C(O)/C(=N/O)c2nc3ccc(Cl)cc3nc2O)cc1` (stereo unspecified), the GI50 is inactive: > 100 µM. On to `Cc1ccc(O)c(C2=CC3=NNC(=O)C3C(c3cccc(Br)c3)C2)c1` (stereo unspecified), for which the GI50 was inactive: 14.6 µM.

As for `N#Cc1nc(Cc2ccccc2)oc1N`, the GI50 was inactive: > 100 µM. Take `O=c1[nH]nc(-c2ccccc2)c2[nH]c3c(c12)Cc1ccccc1-3`: the GI50 is active: 0.624 µM. Take `COc1ccc2c(c1)c(=O)c1c(NCCCN(C)C)ccc3ncn2c31`: the GI50 was inactive: 1.6 µM. Turning to `C[C@]12CCC(=O)C=C1CC[C@@H]1[C@@H]2CC[C@]2(C)C(=O)/C(=C\c3ccccc3)C[C@@H]12`, the GI50 was inactive: 46.9 µM. Regarding `CCN(CC)CCC1CC/C(=C\c2ccc(OC)cc2)C1=O` (stereo unspecified), the GI50 is inactive: > 100 µM. Turning to `COc1ccc2[nH]cc(C(=O)C(=O)NC34CC5CC(CC(C5)C3)C4)c2c1`, the GI50 was inactive: 37.7 µM. Consider `COC(=O)[C@]12CCC(=O)N1[C@H](C(=O)O)Cc1c2[nH]c2ccccc12`, for which the GI50 is inactive: > 100 µM. As to `Cc1cc(C)nc(NCCC(O)(P(=O)(O)O)P(=O)(O)O)n1`, the GI50 is inactive: > 100 µM. Turning to `O=S(=O)(O)c1ccc2c(/N=N/c3ccccc3)c(O)c(S(=O)(=O)O)cc2c1`, the GI50 was inactive: > 100 µM. With `COCC(C#N)NC1CC(OC2CC(O)(C(=O)CO)Cc3c(O)c4c(c(O)c32)C(=O)c2c(OC)cccc2C4=O)OC(C)C1O` (stereo unspecified), the GI50 was active: 0.275 µM. For `CC1=C[C@@H](C)C[C@]2(C)CC[C@H](O2)[C@]23CC[C@](C)(C[C@H](O2)[C@@H]2O[C@@](C)(CC2=O)[C@@H](O)[C@H]2CC[C@@]4(CCC[C@@H](O4)[C@H](C)C(=O)O[C@H]4C[C@H]([C@]5(O)OCC[C@H](C)[C@@H]5O)O[C@H]4C=C1)O2)O3` the value was active: 0.164 µM; for `COc1ccc(CC2c3cc(OC)c(OC)cc3CC[N+]2(C)C)cc1OC` (stereo unspecified), inactive: > 100 µM.

`O=C1CCC2(c3ccc(Cl)cc3)Nc3cc(Cl)ccc3N12` (stereo unspecified): the GI50 was inactive: 14.1 µM. As for `COc1ccccc1-c1cc(O)c2ccc(C)nc2n1`, the GI50 was inactive: > 100 µM.
